Conditions: oral, LC/MS/MS

## CC(=O)N[C@H]1[C@H]([C@H](O)[C@H](O)CO)OC(C(=O)OC(OC(=O)[C@H](N)C(C)C)C(C)C)=C[C@@H]1NC(=N)N (stereo partly shown) [ZAN-Isp-Val]
  species detectable in plasma after administration of the analog: only the Zanamivir was detectable in plasma
